Measured values as given in PubChem BioAssay AID624260 (Broad Institute, 2012).
Out of some 44,000 compounds screened, about 30 (0.07%) were called active. The inconclusive results got no clear call from the source; some entries with a clear call stand among them for comparison. Cut-off read from the data, not from the text of the source: active = inhibition above about 54% (passing the limit was not always enough); inconclusive = no clear call, values can overlap the other calls.

The compounds below were run against Histone-lysine N-methyltransferase NSD2 (Homo sapiens) (UniProt O96028) (assay: NSD2 histone methyltransferase activity blockers – biochemical, plate reader, single point, primary screen (AID 624260;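 note: inhibitors reduce the monomethyl H3K36 fluorescence signal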)). Details: NSD2-SET H3K36me1 DELFIA fluorescence, at 12.5 µM, hits give high values.
Chain of UniProt O96028 (O96028 whole entry, looked up): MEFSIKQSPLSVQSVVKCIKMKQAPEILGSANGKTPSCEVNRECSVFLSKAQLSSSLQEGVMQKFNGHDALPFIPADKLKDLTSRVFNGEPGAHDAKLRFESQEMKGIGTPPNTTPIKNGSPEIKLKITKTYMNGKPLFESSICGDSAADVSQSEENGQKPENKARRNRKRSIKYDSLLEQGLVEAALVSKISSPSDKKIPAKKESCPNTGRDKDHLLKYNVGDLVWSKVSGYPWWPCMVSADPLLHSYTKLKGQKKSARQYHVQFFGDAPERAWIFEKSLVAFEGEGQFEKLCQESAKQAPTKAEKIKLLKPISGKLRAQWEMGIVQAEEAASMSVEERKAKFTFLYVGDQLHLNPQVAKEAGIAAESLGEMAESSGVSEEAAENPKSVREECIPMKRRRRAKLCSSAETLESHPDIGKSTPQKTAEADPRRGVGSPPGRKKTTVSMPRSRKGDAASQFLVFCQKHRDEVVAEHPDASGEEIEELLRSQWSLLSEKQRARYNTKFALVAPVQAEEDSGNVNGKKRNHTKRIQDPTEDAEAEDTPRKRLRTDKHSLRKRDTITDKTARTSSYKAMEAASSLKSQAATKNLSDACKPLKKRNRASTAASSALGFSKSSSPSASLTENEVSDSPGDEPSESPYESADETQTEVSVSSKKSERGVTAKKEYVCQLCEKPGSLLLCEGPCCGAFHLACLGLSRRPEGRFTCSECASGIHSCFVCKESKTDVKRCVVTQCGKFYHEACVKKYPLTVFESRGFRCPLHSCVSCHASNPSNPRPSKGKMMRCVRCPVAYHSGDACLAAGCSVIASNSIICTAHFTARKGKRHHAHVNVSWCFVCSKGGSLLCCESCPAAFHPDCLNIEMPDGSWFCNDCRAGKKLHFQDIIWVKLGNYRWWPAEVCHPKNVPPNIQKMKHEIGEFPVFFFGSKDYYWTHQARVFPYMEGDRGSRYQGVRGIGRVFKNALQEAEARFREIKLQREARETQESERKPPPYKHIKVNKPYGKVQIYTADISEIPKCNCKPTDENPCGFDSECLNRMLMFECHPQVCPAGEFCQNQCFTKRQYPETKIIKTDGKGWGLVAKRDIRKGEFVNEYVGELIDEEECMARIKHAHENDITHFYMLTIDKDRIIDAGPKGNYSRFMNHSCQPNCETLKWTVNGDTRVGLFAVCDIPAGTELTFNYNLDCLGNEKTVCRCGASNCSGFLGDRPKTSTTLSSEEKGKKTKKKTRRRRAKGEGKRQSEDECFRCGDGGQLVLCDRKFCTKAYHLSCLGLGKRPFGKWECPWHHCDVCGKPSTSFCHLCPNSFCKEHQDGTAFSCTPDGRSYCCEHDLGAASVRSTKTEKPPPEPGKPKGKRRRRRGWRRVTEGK

SMILES | inhibition
C[C@@H]1CN([C@H](C)CO)S(=O)(=O)c2ccc(-c3cccc(C#N)c3)cc2O[C@@H]1CN(C)C(=O)C1CC1 | inconclusive: 152%
CC(=O)O[C@@H]1CC2C(C)(C)CCC[C@]2(CO)C2=C1C(=O)C(C(C)C)C(=O)C2=O (stereo not given in full) | inactive: -8.43%
C=CCN(CC=C)C(=O)Cc1ccc(Br)cc1 | inactive: -3.02%
COc1ccc(CN(C)C[C@H]2Oc3c(NS(=O)(=O)c4cccs4)cccc3C(=O)N([C@H](C)CO)C[C@@H]2C)cc1 | inconclusive: 200%
C[C@@H]1CCCCO[C@@H](CN(C)S(=O)(=O)c2ccccc2)[C@H](C)CN([C@@H](C)CO)C(=O)c2cc(NS(C)(=O)=O)ccc2O1 | inconclusive: 59.6%
C[C@@H]1CCCCO[C@@H](CN(C)C(=O)CCC(F)(F)F)[C@@H](C)CN([C@H](C)CO)C(=O)c2cc(NS(=O)(=O)c3ccccc3)ccc2O1 | inconclusive: 90.7%
Cc1noc(C)c1S(=O)(=O)Nc1ccc2c(c1)C(=O)N([C@H](C)CO)C[C@H](C)[C@@H](CN(C)C(=O)NC1CCCCC1)O2 | inconclusive: 76.6%
CNC[C@@H]1Oc2c(N)cccc2C(=O)N([C@@H](C)CO)C[C@@H]1C | inconclusive: 65.4%
COC(=O)C1=CO[C@@H](O[C@@H]2O[C@H](CO)[C@@H](O)[C@H](O)[C@H]2O)[C@H]2[C@@H]1C=CC21C=C([C@H](C)OC(=O)/C=C/c2ccc(O)cc2)C(=O)O1 (stereo not given in full) | active: 76.1%
CC(C)NC(=O)Nc1ccc2c(c1)C(=O)N([C@H](C)CO)C[C@H](C)[C@@H](CN(C)C(=O)CCCN(C)C)OCCCC[C@@H](C)O2 | inconclusive: 125%
C[C@H](CO)N1C[C@H](C)[C@@H](CN(C)C(=O)Nc2ccc(C(F)(F)F)cc2)Oc2c(NC(=O)c3ccncc3)cccc2C1=O | inconclusive: 149%
COc1cc(OC)c(-c2c(OC)cc(OC)cc2OC)c(OC)c1 | inactive: 2.1%
C[C@H](CO)N1C[C@H](C)[C@H](CN(C)Cc2ccc(C(=O)O)cc2)Oc2ccc(NC(=O)NC3CCCCC3)cc2CC1=O | inconclusive: 141%
CCC(=O)N(C)C[C@H]1Oc2cc(C#CC3(O)CCCC3)ccc2S(=O)(=O)N([C@H](C)CO)C[C@H]1C | inconclusive: 54.6%
CN1CCN(C(=O)C[C@@H]2C[C@@H]3c4cc(NC(=O)Nc5ccc(C(F)(F)F)cc5)ccc4O[C@@H]3[C@@H](CO)O2)CC1 | inconclusive: 160%
CC(C)NC(=O)Nc1ccc2c(c1)C(=O)N([C@@H](C)CO)C[C@@H](C)[C@H](CN(C)C)OCCCC[C@H](C)O2 | inconclusive: 85.6%
COCc1cc(C)n(CC(=O)Nc2cc(Cl)ccc2OC)c(=O)c1C#N | inactive: -4.24%
C[C@H](CO)N1C[C@H](C)[C@H](CN(C)C(=O)Nc2ccccc2)OCCCC[C@H](C)Oc2ccc(NC(=O)Nc3ccc4c(c3)OCO4)cc2C1=O | inactive: 0.671%
C[C@@H]1CCCCO[C@H](CN(C)C(=O)C2CCCCC2)[C@@H](C)CN([C@H](C)CO)C(=O)c2cc(N(C)C)ccc2O1 | inconclusive: 133%
O=C(C[C@@H]1C[C@@H]2c3cc(NC(=O)CC4CC4)ccc3O[C@@H]2[C@@H](CO)O1)NCCN1CCCCC1 | inconclusive: 82.4%

SMILES | inhibition
COc1ccc(NC(=O)Nc2ccc3c(c2)C(=O)N([C@@H](C)CO)C[C@@H](C)[C@@H](CN(C)CC2CCCCC2)O3)cc1 | inconclusive: 167%
COc1ccc2nc(/N=C(/N)NC(=O)N3c4ccccc4Sc4ccccc43)nc(C)c2c1 | inactive: 0.687%
C[C@@H]1CCCCO[C@@H](CN(C)C)[C@H](C)CN([C@H](C)CO)C(=O)c2cc(NS(=O)(=O)c3cn(C)cn3)ccc2O1 | inconclusive: 89%
CC(C)NC(=O)N(C)C[C@@H]1Oc2cc(-c3cccnc3)ccc2S(=O)(=O)N([C@H](C)CO)C[C@H]1C | inconclusive: 146%
C[C@H](CO)N1C[C@H](C)[C@@H](CN(C)S(=O)(=O)c2cccc(F)c2)Oc2cc(C#CCN(C)C)ccc2S1(=O)=O | inactive: 0.824%
Cc1ccc(NC2=CC(=O)c3sc(C)nc3C2=O)cc1 | active: 73.7%
COCC(=O)N(C)C[C@H]1Oc2cc(-c3ccc(C)cc3)ccc2S(=O)(=O)N([C@H](C)CO)C[C@@H]1C | inactive: 5.77%
C[C@@H]1CCCCO[C@@H](CN(C)C(=O)c2ccccc2)[C@H](C)CN([C@H](C)CO)C(=O)c2cc(NS(=O)(=O)c3ccccc3)ccc2O1 | inconclusive: 93.2%
C[C@@H]1CN([C@H](C)CO)C(=O)c2cc(NC(=O)CCCN(C)C)ccc2O[C@H]1CN(C)C(=O)Nc1ccc(F)cc1 | inconclusive: 75.4%
CCn1nc(C)c(N=Cc2ccc(N(C)C)c(Br)c2)c1C | inactive: 1.03%
[N-]=[N+]=Nc1ccccc1C[C@@]1(C(=O)NCC(O)CO)N=C(c2ccc(OCCCO)cc2)O[C@@H]1c1ccccc1 (stereo not given in full) | inactive: -2.85%
CCCC#Cc1cnc2c(c1)C(=O)N([C@H](C)CO)C[C@H](C)[C@@H](CN(C)C(=O)c1ccccc1)O2 | inconclusive: 83%
CC(C)NC(=O)Nc1ccc2c(c1)C(=O)N([C@H](C)CO)C[C@H](C)[C@@H](CN(C)C)OCCCC[C@@H](C)O2 | inconclusive: 144%
CC(C)NC(=O)Nc1ccc2c(c1)C(=O)N([C@@H](C)CO)C[C@@H](C)[C@H](CN(C)C(=O)CCCN(C)C)OCCCC[C@H](C)O2 | inconclusive: 110%
COC(=O)c1ccc(/C=N/NC(=O)c2ccc(C(=O)NO)cc2)cc1 | inactive: 0.991%
CC(C)NC(=O)N(C)C[C@H]1Oc2cc(-c3cccnc3)ccc2S(=O)(=O)N([C@H](C)CO)C[C@H]1C | inconclusive: 89.8%
CNC[C@H]1OCCCC[C@H](C)Oc2ccc(NS(=O)(=O)c3ccccc3)cc2C(=O)N([C@H](C)CO)C[C@@H]1C | inconclusive: 123%
C[C@@H]1CN([C@H](C)CO)C(=O)c2cccc(NC(=O)c3ccncc3)c2O[C@@H]1CN(C)Cc1ccc(Cl)c(Cl)c1 | inconclusive: 63.7%
C[C@@H]1CCCCO[C@H](CN(C)C(=O)c2ccncc2)[C@@H](C)CN([C@H](C)CO)C(=O)c2cc(NS(=O)(=O)c3ccccc3)ccc2O1 | inconclusive: 104%
CCC(=O)N(C)C[C@H]1Oc2ncc(-c3cccc(OC)c3)cc2C(=O)N([C@H](C)CO)C[C@H]1C | inconclusive: 144%

SMILES | inhibition
C[C@H](CO)N1C[C@H](C)[C@@H](CN(C)S(=O)(=O)c2ccc(Cl)cc2)Oc2ccc(NS(C)(=O)=O)cc2CC1=O | inactive: 1.76%
C[C@@H]1CCCCO[C@H](CN(C)S(=O)(=O)c2cn(C)cn2)[C@@H](C)CN([C@@H](C)CO)C(=O)c2cc(NS(=O)(=O)c3cn(C)cn3)ccc2O1 | inconclusive: 111%
CCC1(CC)Cc2ccccc2-c2[nH]c(=S)n(Cc3ccccc3)c(=O)c21 | inactive: -3.17%
C[C@H]1CCCCO[C@H](CN(C)C)[C@@H](C)CN([C@@H](C)CO)C(=O)c2cc(NC(=O)CCC(F)(F)F)ccc2O1 | inconclusive: 109%
COc1cc(O)cc(OC)c1/C=N/NC(=O)CCCCCCC(=O)Nc1ccccc1O | inactive: 3.95%
O=C(CCCCCCC(=O)Nc1ccccc1O)N/N=C/c1ccccc1Br | inactive: 3.25%
C[C@@H]1CN([C@H](C)CO)S(=O)(=O)c2ccc(C#CC3(O)CCCC3)cc2O[C@H]1CN(C)C(=O)Cc1ccccc1 | inactive: 7.34%
C[C@H](CO)N1C[C@H](C)[C@@H](CN(C)Cc2ccncc2)Oc2ncc(C#CCN(C)C)cc2C1=O | inconclusive: 103%
CC(C)CC#Cc1cnc2c(c1)C(=O)N([C@@H](C)CO)C[C@@H](C)[C@@H](CN(C)C(=O)c1cccnc1)O2 | inactive: -0.174%
CC(=O)N(C)C[C@@H]1Oc2ncc(C#Cc3ccccc3F)cc2C(=O)N([C@@H](C)CO)C[C@@H]1C | inconclusive: 127%
O=C(C[C@H]1C=C[C@H](NC(=O)CN2CCOCC2)[C@@H](CO)O1)NCc1cccc(F)c1 | inactive: -94.1%
C/C=C/c1cnc2c(c1)C(=O)N([C@H](C)CO)C[C@@H](C)[C@H](CN(C)C(=O)CN1CCOCC1)O2 | inconclusive: 76%
O=C(Nc1ccc2c(c1)[C@H]1C[C@H](CC(=O)N3CCc4ccccc4C3)O[C@H](CO)[C@H]1O2)C1CCOCC1 | inactive: 1.87%
C[C@H]1CN([C@@H](C)CO)C(=O)c2cccc(NC(=O)C3CCOCC3)c2O[C@H]1CN(C)C(=O)Nc1cccc2ccccc12 | inconclusive: 59.2%
C[C@@H]1CCCCO[C@H](CN(C)C(=O)CCCN(C)C)[C@@H](C)CN([C@H](C)CO)C(=O)c2cc(NC(=O)c3ccncc3)ccc2O1 | inconclusive: 134%
COC(=O)[C@H]1CC[C@H](OC(C)=O)[C@]2(C)CC[C@@H](C(C)C)[C@@H](OC(=O)/C=C/c3ccccc3)C12 (stereo not given in full) | inactive: 3.41%
COCC(=O)Nc1ccc2c(c1)[C@H]1C[C@H](CC(=O)NCc3ccccn3)O[C@H](CO)[C@H]1O2 | inactive: 2.78%
COc1ccc(S(=O)(=O)Nc2ccc3c(c2)CC(=O)N([C@H](C)CO)C[C@H](C)[C@H](CN(C)S(=O)(=O)c2ccc(OC)cc2)O3)cc1 | inconclusive: 168%
C[C@@H]1CN([C@H](C)CO)C(=O)c2cc(C#CCN(C)C)cnc2O[C@@H]1CN(C)C(=O)Cc1cccnc1 | inactive: -1.47%
CCCN(C)C[C@H]1Oc2cc(C#CC(C)C)ccc2S(=O)(=O)N([C@@H](C)CO)C[C@H]1C | inconclusive: 71.5%
